According to the RNAGym collection of RNA variant scans (doi:10.1093/nar/gkz1192):
Read counts are not given, so values of variants with three or more changes are uncertain.

B1: CPEB3 Ribozyme (parent)
chain: UAACAGGGGGCCACAGCAGAAGCGUUCACGUCGCAGCCCCUGUCAGAUUCUGGUGAAUCUGCGAAUUCUGCUGUAUAUCUC

Variants of: B1
Assay: self-cleavage, relative activity (ratio to wild type); higher = more cleavage; in vitro, sequencing
Outline: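 Relative activity compares each variant's cleaved/total read fraction with that of the unmutated ribozyme. To get these fractions, barcoded CPEB3 ribozyme libraries from rounds of error-prone PCR were transcribed with T7 RNA polymerase for 5 hours at 37°C and then given 15 min of DNase I treatment before EDTA was added. The RNAs were reverse transcribed with template switching and sequenced on Illumina, and DNA sequencing linked barcodes to variants. A minimum of 5 reads applied, and three batches were averaged.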

Variant	self-cleavage
AAACAGGGGGCCACAGCAGAAGCGUUCACGUCGCGGCCCCUGCCAGAUUCUGGUGAAUCUGCGAAUUCUGCUGUAUAUCUC [U1A A35G U43C]	0.98
AAACAGGGGGCCACAGCAGAAGCGUUCACGUCGCUGCCCCUGUCAGACUCUGGUGAAUCUGCGAAUUCUGCUGUAUAUCUC [U1A A35U U48C]	0.25
AAACAGGGGGCCACAGCAGAAGCGUUCACGUCGCAGCCCCUGUCCGACUCUGGUGAAUCUGCGAAUUCUGCUGUAUAUCUC [U1A A45C U48C]	0.2
AAACAGGGGGCCACAGCAGAAGCGUUCACGUCGCAGCCCCUGUCUGAUUCUGGUGAAUCUGCGAAUUCUGCUGUACAUCUC [U1A A45U U76C]	0.65
AAACAGGGGGCCACAGCAGAAGCGUUCACGUCGCAGCCCCUGUCAGAUUCUGGUGGAUCCGCGGAUUCUGCUGUAUAUCUC [U1A A56G U60C A64G]	0.23
AAACAGGGGGCCACAGCAGAAGCGUUCACGUCGCAGCCCCUGUCAGAUUCUGGUGGAUCUGCGAAUCCUGCUGUAUAUCUC [U1A A56G U67C]	0.43
AAACAGGGGGCCACAGCAGAAGCGUUCACGUCGCAGCCCCUGUCAGAUUCUGGUGAGUCUGCGAAUCCUGCUGUAUAUCUC [U1A A57G U67C]	0.33
AAACAGGGGGCCACAGCAGAAGCGUUCACGUCGCAGCCCCUGUCAGAUUCUGGUGAGUCUGCGAAUUCCGCUGUGUUUCUC [U1A A57G U69C A75G A77U]	0.32
AAAAAGGGGGCCACGGCAGAAGCGCUCGCGUCGCUGCCCCUGUCAGGUUCUGGUGAAUCUGCGAAUUCUGCUGUAUAUCUC [U1A C4A A15G U25C A28G A35U A47G]	0.2
AAAAAGGGGGCCACUGCAGAAGCGUUCACGUCGCAGCCCCUGUCAGAUUCCGGUGAUUCUGCGAAUUCUACCGUAUAUCUC [U1A C4A A15U U51C A57U G70A U72C]	0.2
AAAAAGGGGACCUCAGCAGUAGCGUUCACGUCGCAGCCCCUGUCAGAUUCUGGUGAAUCUGCGAAUCCCGCUGUAUAUCUC [U1A C4A G10A A13U A20U U67C U69C]	0.2
AAAUAGGGGGCCACAGCAGAAGCGUUCACGUCGCGGCCCCUGGCAGAUUCUGGUGAAUCUGCGAAUUCUGCUGUAUAUCUC [U1A C4U A35G U43G]	0.56
AAACAGGGGGUCGCAGCAGAAGCGUUCACGUCGCGGCCCCUGUCAGAUUCUGGUGAAUCUGAGAAUUCUGCUGUAUAUCUC [U1A C11U A13G A35G C62A]	0.08
AAACAGGGGGCGACAGCAGAAGCGUCCACGUCGCAGCCCCUGUCAGAUUCUGGUGAAACUGCGAAUUCUGCUGUAUAUCUC [U1A C12G U26C U58A]	0.06
AAACAGGGGGCCAGAGCAGAAGCGUUCUCGUCGCAGCCCCUGUCAGACUCUGGAGAAUCUGCGAAUCCUGCUGUAUAUCUC [U1A C14G A28U U48C U54A U67C]	0.14
AAACAGGGGGCCAUAGCAGAAGCGCUCACGUCGCAGCCCCUGUCAGAUUCUGGCGAAUCUGCGAAUUCUGCUGUAUAUCUC [U1A C14U U25C U54C]	0.19
AAACAGGGGGCCACAGCAGAAGAGUUCACGUCGCAGCCCCUGUCAGAUUCUGGUGAACCUGCGAAUUCUACUGUAUAUCUC [U1A C23A U58C G70A]	0.14

Variant	self-cleavage
AAACAGGGGGCCACAGCAGAAGUGUUCACGUCGCAGCCCCUGACAGAUUCAGGUGGUUCUGCGAAUUCUGCUGUAUAUCUC [U1A C23U U43A U51A A56G A57U]	0.07
AAACAGGGGGCCACAGCAGAAGCGUUCAAGUCGCAGCCCCUGUCAGAUUCUGGUGAGUCUGCGAAUUCUGCUGUAUAUCUC [U1A C29A A57G]	0.37
AAACAGGGGGCCACAGCAGAAGCGUUCAUGUCGCAGCCCCUGUCAGAUUCUGGUGGAUCUGCGAAUUCUGCCGUUUAUCUC [U1A C29U A56G U72C A75U]	0.4
AAACAGGGGGCCACAGCAGAAGCGUUCACGUCGCAGCCUCUGUCAGACUCUGGUGAAUCCGCGAAUUCUGCUGUAUAUCUC [U1A C39U U48C U60C]	0.2
AAACAGGGGGCCACAGCAGAAGCGUUCACGUCGCAGCCCGUGUCAGACUCUGGUGAAUCUGCGAAUCCUGCUGUAUAUCCC [U1A C40G U48C U67C U80C]	0.18
AAACAGGGGGCCACAGCAGAAGCGUUCACGUCGCAGCCCCUGUCAGAUUCUGGUGAAUCUGAGAAUUCUGCCGUAUAUCUC [U1A C62A U72C]	0.51
AAACAAGGGGCCACAGCAGAAGCGUUCACGCCGUAGCCCCUGUCAGAUUCUGGUGAAUCUGCGUAUUCUGCUGUAUACCUC [U1A G6A U31C C34U A64U U78C]	0.04
AAACAAGGGGCCACAGCAGAAGCGUUCACGUCGCAGCCCCAGUCAGAUUCUGGUGAAUCUACGAAUUCUGCUGUAUAUCCC [U1A G6A U41A G61A U80C]	0.08
AAACAGAGGGCCACAGCAGAAGCGUUCACGUCGCGGCCCCUGACAGAUUCUGGUGAAUCUGCGAAUUCUGCUGUAUAUCUC [U1A G7A A35G U43A]	0.32
AAACAGGAGGCCACAGCAGAAGCGUUCACGUCGCAGCCCCUGUCAGGUUCUGGUGAAUCUGCGAAUUCUGCUGUAUAUCUC [U1A G8A A47G]	0.28
AAACAGGUGGCCUCAGCAGAGGCGUUCACGUCGCAGCCCCUGUCAGAUUCUGGUGAAUCUGCGAAUUCCGCUGCGUAUCUC [U1A G8U A13U A21G U69C U74C A75G]	0.05
AAACAGGGAGCCACAGCAGAAGCGUUCACGUCGCAACCCCUGGCAGAUUCUGGUGAAUCUGCGAAUUCUGCUGUAUAUCUC [U1A G9A G36A U43G]	0.06
AAACAGGGUGCCACAGCAGAAGCGUUCACGUCGCAGCCCCUGUCAGAUUCUGGUGAAUCUGCGAAUUCUGCCGUAUAUCUC [U1A G9U U72C]	0.05
AAACAGGGGACCGCAGCAGAAGCGCUCACGCCGCAGCCCCUGCCAGAUUCUGGUGAAUCUGCGAAUUCUGCUGUAUAUCUC [U1A G10A A13G U25C U31C U43C]	0.01
AAACAGGGGACCACAGCAGGAGCGUUCACGUCGCAGCCCCUGUCUGAUUCUGGUGAAUCAGCGGAUUCUGCUGUACAUCUC [U1A G10A A20G A45U U60A A64G U76C]	0.05
AAACAGGGGACCACAGCAGAAGCGUUCACGUCGCAGCCCCUGUCAGAUUCUGGUGAAUCUGCGGAUUCUGCUGUAUAUCUC [U1A G10A A64G]	0.3
AAACAGGGGACCACAGCAGAAGCGUCCACGUCGCAGCCCCUGUCAGAUUCCGGUGAAUCUGCGUAUUCUUCUGUAUAUCUC [U1A G10A U26C U51C A64U G70U]	0.05
